{"source": "paper PMC4336329", "about": "(PLoS ONE, 2015)", "note": "Out of some 310,000 compounds screened, about 14,000 (4.5%) showed an effect of 50% or more. The effect is printed as a negative number. The list shows a part of the results.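 Note: peak tail current of the secondary pulse compared with the same well before compound.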"}
{"target": "human ether-à-go-go-related gene (hERG) potassium channel (human, UniProt Q12809)", "sequence (Q12809 whole entry, looked up)": "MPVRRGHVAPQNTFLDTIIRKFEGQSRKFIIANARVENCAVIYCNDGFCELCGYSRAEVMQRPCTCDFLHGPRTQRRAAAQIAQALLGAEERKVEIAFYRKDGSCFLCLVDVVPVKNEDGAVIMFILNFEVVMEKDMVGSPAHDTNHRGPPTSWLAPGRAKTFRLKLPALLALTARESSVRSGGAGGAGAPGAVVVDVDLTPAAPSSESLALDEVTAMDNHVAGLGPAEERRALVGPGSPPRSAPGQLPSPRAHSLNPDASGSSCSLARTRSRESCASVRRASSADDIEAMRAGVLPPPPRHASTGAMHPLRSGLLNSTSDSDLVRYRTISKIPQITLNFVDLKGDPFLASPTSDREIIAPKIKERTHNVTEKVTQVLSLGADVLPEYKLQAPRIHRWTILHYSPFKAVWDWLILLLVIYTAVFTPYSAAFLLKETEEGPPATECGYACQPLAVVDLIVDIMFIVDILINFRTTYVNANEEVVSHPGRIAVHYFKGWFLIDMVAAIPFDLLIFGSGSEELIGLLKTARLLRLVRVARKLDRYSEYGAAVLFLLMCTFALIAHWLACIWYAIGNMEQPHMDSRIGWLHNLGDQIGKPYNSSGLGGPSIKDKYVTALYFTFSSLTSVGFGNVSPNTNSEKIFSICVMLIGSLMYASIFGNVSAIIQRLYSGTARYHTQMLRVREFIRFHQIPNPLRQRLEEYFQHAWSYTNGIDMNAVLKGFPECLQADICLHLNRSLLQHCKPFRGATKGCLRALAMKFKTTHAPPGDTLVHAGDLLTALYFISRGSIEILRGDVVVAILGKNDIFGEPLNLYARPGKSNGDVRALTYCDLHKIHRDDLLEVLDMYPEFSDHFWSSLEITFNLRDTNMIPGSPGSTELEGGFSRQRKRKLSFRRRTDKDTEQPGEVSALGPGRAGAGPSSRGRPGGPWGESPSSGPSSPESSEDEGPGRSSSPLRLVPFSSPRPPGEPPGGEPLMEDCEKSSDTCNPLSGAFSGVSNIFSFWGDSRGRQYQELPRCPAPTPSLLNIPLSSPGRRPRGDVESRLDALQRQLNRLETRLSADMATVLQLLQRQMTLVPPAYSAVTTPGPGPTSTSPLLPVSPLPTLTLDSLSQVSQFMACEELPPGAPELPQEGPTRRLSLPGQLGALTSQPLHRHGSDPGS", "test": "primary screen, population patch clamp on CHO cells stably expressing hERG", "units": {"hERG current change (%, negative = inhibition) at 10uM": "%"}}
{"smiles": "COc1ccccc1NC(=S)NNC(=O)c1ccccc1Br", "hERG current change (%, negative = inhibition) at 10uM": -70.9}
{"smiles": "COC(=O)c1ccc[n+](CC(=O)c2ccc(Br)cc2)c1.[Cl-]", "hERG current change (%, negative = inhibition) at 10uM": -30.5}
{"smiles": "CCOC(=O)c1c(NC(=O)C2CCN(S(=O)(=O)c3cccs3)CC2)sc(C)c1C", "hERG current change (%, negative = inhibition) at 10uM": 4.56}
{"smiles": "Cc1cc(N)n(-c2ccc([N+](=O)[O-])cc2)n1", "hERG current change (%, negative = inhibition) at 10uM": 6.69}
{"smiles": "CC1(CC(=O)N/N=C/c2ccc(-c3cccc(C(F)(F)F)c3)o2)OCCO1", "hERG current change (%, negative = inhibition) at 10uM": -32.1}
{"smiles": "Cc1cc(C(=O)NNc2ccc(C(C)C)cc2)n(C(C)(C)C)n1", "hERG current change (%, negative = inhibition) at 10uM": 13.6}
{"smiles": "CCC(C)NCCCOc1ccc(Cl)cc1C(C)(C)C.O=C(O)C(=O)O", "note": "(stereo not shown)", "hERG current change (%, negative = inhibition) at 10uM": -8.48}
{"smiles": "COc1ccc(NC(=O)Cc2ccc(Cl)cc2)cc1NC(=O)c1ccco1", "hERG current change (%, negative = inhibition) at 10uM": -20.7}
{"smiles": "N#Cc1c(NC(=O)c2cccc(S(=O)(=O)Nc3ccc(C(=O)O)cc3)c2)sc2c1CCCC2", "hERG current change (%, negative = inhibition) at 10uM": -3.45}
{"smiles": "CCc1ccc(/C=N/N2CCN(c3ccccn3)CC2)cc1", "hERG current change (%, negative = inhibition) at 10uM": -12.3}
{"smiles": "CC(=O)Nc1cccc(OCCCNS(=O)(=O)c2ccc(C#N)cc2)c1", "hERG current change (%, negative = inhibition) at 10uM": -6.74}
{"smiles": "COc1ccc(CC(=O)NCc2ccc(F)cc2)cc1S(=O)(=O)N1CCOCC1", "hERG current change (%, negative = inhibition) at 10uM": -8.29}
{"smiles": "COc1ccc(Br)cc1S(=O)(=O)NCc1ccccn1", "hERG current change (%, negative = inhibition) at 10uM": 0.508}
{"smiles": "COc1ccc(S(=O)(=O)N2CC3C4C=CC(C4)C3C2)cc1", "note": "(stereo not shown)", "hERG current change (%, negative = inhibition) at 10uM": -7.85}
{"smiles": "CSc1ncc2c(=O)[nH]c(-c3ccccc3)nc2n1", "hERG current change (%, negative = inhibition) at 10uM": 11.6}
{"smiles": "CCOC(=O)CN(C(=O)COc1nc(-c2ccccc2)cc(C)c1C#N)c1ccc(C)cc1", "hERG current change (%, negative = inhibition) at 10uM": 2.64}
{"smiles": "CC(CSc1nnnn1-c1ccccc1)Cn1c(N2CCCC2)nc2c1c(=O)[nH]c(=O)n2C", "note": "(stereo not shown)", "hERG current change (%, negative = inhibition) at 10uM": -45.1}
{"smiles": "O=C(O)CCSc1ccccn1", "hERG current change (%, negative = inhibition) at 10uM": 29.3}
{"smiles": "Cc1ccc(NC(=O)C2(S(=O)(=O)c3ccc(C)cc3)CC2)cc1", "hERG current change (%, negative = inhibition) at 10uM": 1.48}
{"smiles": "Cc1csc(NC(=O)CSc2ccc([N+](=O)[O-])cn2)n1", "hERG current change (%, negative = inhibition) at 10uM": -16.1}
{"smiles": "Cc1cc(NC(=O)c2ccc(NC(=O)C(C)Oc3ccccc3)cc2)no1", "note": "(stereo not shown)", "hERG current change (%, negative = inhibition) at 10uM": 17.8}
{"smiles": "CC(C)(C)Cc1cc(N)on1", "hERG current change (%, negative = inhibition) at 10uM": 2.27}
{"smiles": "O=C(Oc1ccc(Br)cc1C(=S)N1CCOCC1)c1ccccc1", "hERG current change (%, negative = inhibition) at 10uM": 6.19}
{"smiles": "CCC(=O)Nc1cc(C(=O)N2CCC3(CC2)OCCO3)ccc1S(=O)(=O)c1ccc(C)cc1", "hERG current change (%, negative = inhibition) at 10uM": -3.74}
{"smiles": "Cc1sc2nc(SCC(=O)N3CCCC3)[nH]c(=O)c2c1C", "hERG current change (%, negative = inhibition) at 10uM": -12.3}
{"smiles": "Cc1noc(C)c1S(=O)(=O)N1CCC(C(=O)NCCN2CCC(C)CC2)CC1", "hERG current change (%, negative = inhibition) at 10uM": -2.96}
{"smiles": "Cc1cccc(C)c1NC(=O)CN(C)CC(=O)Nc1ccc(F)c(Cl)c1", "hERG current change (%, negative = inhibition) at 10uM": -9.4}
{"smiles": "CCCCC(=O)Nc1ccc(C(=O)Nc2nnc(COC)s2)cc1", "hERG current change (%, negative = inhibition) at 10uM": -0.609}
{"smiles": "COc1ccc(CNC(=O)CSc2cccc3cccnc23)cc1", "hERG current change (%, negative = inhibition) at 10uM": 4.1}
{"smiles": "C[C@H](OC(=O)NCc1ccc(C(F)(F)F)cc1)[C@@H]1O[C@@]2(C)CCC[C@@H]1O2", "hERG current change (%, negative = inhibition) at 10uM": 21.2}
{"smiles": "COc1ccc(C2CC(c3cccc(Cl)c3)n3nc(N)nc3N2)cc1", "note": "(stereo not shown)", "hERG current change (%, negative = inhibition) at 10uM": -27.2}
{"smiles": "COc1ccc(CN/C(C)=C(/C#N)C(N)=O)cc1OC", "hERG current change (%, negative = inhibition) at 10uM": -10.1}
{"smiles": "Cc1cc(SCC(=O)N/N=C/c2ccc(O)c(O)c2)c(C)cc1Br", "hERG current change (%, negative = inhibition) at 10uM": 4.97}
{"smiles": "CN(C)S(=O)(=O)c1ccc(NC(=O)COC(=O)C2COc3ccccc3O2)cc1", "note": "(stereo not shown)", "hERG current change (%, negative = inhibition) at 10uM": -2.59}
{"smiles": "Cc1cc(C)c(S(=O)(=O)NCc2ccccn2)c(C)c1", "hERG current change (%, negative = inhibition) at 10uM": 3.13}
{"smiles": "NC(=O)CN1C(=O)C(=O)N(Cc2ccccc2)C1=O", "hERG current change (%, negative = inhibition) at 10uM": 13}
{"smiles": "N#CC1=C(N)C2=C(N3CCCCC3)CCCC2C1(C#N)C#N", "note": "(stereo not shown)", "hERG current change (%, negative = inhibition) at 10uM": 6.05}
{"smiles": "COc1ccc(CCC(=O)NCc2cn3ccsc3n2)cc1", "hERG current change (%, negative = inhibition) at 10uM": 13}
{"smiles": "COc1cc(C(=O)NCCCN2CCCC2=O)cc(Br)c1OCc1ccccc1", "hERG current change (%, negative = inhibition) at 10uM": -50.7}
{"smiles": "COc1ccc(N2CCN(S(=O)(=O)c3ccc4c(c3)CC(C)N4C(=O)C3CC3)CC2)cc1", "note": "(stereo not shown)", "hERG current change (%, negative = inhibition) at 10uM": 18.5}
{"smiles": "CCN(CC)S(=O)(=O)c1ccc(S(=O)(=O)Nc2ccc(C(=O)N3CCCC3)cc2)cc1", "hERG current change (%, negative = inhibition) at 10uM": -8.63}
{"smiles": "COc1ccccc1Nc1nc(N)nc(CN2CCC(C)CC2)n1", "hERG current change (%, negative = inhibition) at 10uM": -67.5}
{"smiles": "Cc1ccc(CN(Cc2cc3cccc(C)c3[nH]c2=O)C(=O)N(C)C)cc1", "hERG current change (%, negative = inhibition) at 10uM": -9.44}
{"smiles": "Cc1ccc(CCN2C(=O)c3ccccc3C2C(=O)NCc2cccnc2)cc1", "note": "(stereo not shown)", "hERG current change (%, negative = inhibition) at 10uM": -6.79}
{"smiles": "Cc1cccc(C)c1NC(=O)CN(C)C(=O)c1cccc(NS(=O)(=O)c2ccccc2)c1", "hERG current change (%, negative = inhibition) at 10uM": -4.78}
{"smiles": "CC(CCC(=O)O)C1CCC2C3CCC4C[C@H](O)CCC4(C)C3CC(=O)C12C", "note": "(stereo partly shown)", "hERG current change (%, negative = inhibition) at 10uM": 17.7}
{"smiles": "CCCc1cc(=O)oc2cc(OCC(=O)NCCc3c[nH]c4ccccc34)ccc12", "hERG current change (%, negative = inhibition) at 10uM": -14.4}
{"smiles": "CCOc1ccccc1-n1c(SCC(=O)NC(C)(C)C)nnc1-c1ccoc1C", "hERG current change (%, negative = inhibition) at 10uM": 1.75}
{"smiles": "CCOc1ccc(C(=O)COC(=O)CN2C(=O)NC3(CCCCC3C)C2=O)cc1", "note": "(stereo not shown)", "hERG current change (%, negative = inhibition) at 10uM": -42.7}
{"smiles": "O=C(CC1(c2ccc(Cl)cc2)C2CC3CC(C2)CC1C3)NCCO", "note": "(stereo not shown)", "hERG current change (%, negative = inhibition) at 10uM": -7.17}
{"smiles": "Nc1c(-c2ccc(Cl)cc2)cnc2c(-c3ccccc3)cnn12", "hERG current change (%, negative = inhibition) at 10uM": 29.1}
{"smiles": "O=C(Cn1cc([N+](=O)[O-])cn1)NCc1ccco1", "hERG current change (%, negative = inhibition) at 10uM": -13.3}
{"smiles": "O=C(NCc1ccccc1F)C1CCCN(S(=O)(=O)c2ccc(-n3cnnn3)cc2)C1", "note": "(stereo not shown)", "hERG current change (%, negative = inhibition) at 10uM": -1.94}
{"smiles": "COc1cc(C(=O)Nc2ccc3c(c2)Cc2cc(NC(=O)c4cc(OC)c(OC)c(OC)c4)ccc2-3)cc(OC)c1OC", "hERG current change (%, negative = inhibition) at 10uM": 7.81}
{"smiles": "CCOc1ccc2nc(-c3ccccc3)nc(SCC(=O)OC)c2c1", "hERG current change (%, negative = inhibition) at 10uM": 19.2}
